Source: paper PMC4336329 (PLoS ONE, 2015)
The campaign covered roughly 310,000 compounds. About 14,000 (4.5%) showed an effect of 50% or more. Effects have a minus sign here. This is one part of the list.

biological target: human ether-à-go-go-related gene (hERG) potassium channel (human, UniProt Q12809); test: primary screen, population patch clamp on CHO cells stably expressing hERG
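Also: peak tail current of the secondary pulse compared with the same well before compound.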

Chain of human ether-à-go-go-related gene (hERG) potassium channel (Q12809 whole entry, looked up): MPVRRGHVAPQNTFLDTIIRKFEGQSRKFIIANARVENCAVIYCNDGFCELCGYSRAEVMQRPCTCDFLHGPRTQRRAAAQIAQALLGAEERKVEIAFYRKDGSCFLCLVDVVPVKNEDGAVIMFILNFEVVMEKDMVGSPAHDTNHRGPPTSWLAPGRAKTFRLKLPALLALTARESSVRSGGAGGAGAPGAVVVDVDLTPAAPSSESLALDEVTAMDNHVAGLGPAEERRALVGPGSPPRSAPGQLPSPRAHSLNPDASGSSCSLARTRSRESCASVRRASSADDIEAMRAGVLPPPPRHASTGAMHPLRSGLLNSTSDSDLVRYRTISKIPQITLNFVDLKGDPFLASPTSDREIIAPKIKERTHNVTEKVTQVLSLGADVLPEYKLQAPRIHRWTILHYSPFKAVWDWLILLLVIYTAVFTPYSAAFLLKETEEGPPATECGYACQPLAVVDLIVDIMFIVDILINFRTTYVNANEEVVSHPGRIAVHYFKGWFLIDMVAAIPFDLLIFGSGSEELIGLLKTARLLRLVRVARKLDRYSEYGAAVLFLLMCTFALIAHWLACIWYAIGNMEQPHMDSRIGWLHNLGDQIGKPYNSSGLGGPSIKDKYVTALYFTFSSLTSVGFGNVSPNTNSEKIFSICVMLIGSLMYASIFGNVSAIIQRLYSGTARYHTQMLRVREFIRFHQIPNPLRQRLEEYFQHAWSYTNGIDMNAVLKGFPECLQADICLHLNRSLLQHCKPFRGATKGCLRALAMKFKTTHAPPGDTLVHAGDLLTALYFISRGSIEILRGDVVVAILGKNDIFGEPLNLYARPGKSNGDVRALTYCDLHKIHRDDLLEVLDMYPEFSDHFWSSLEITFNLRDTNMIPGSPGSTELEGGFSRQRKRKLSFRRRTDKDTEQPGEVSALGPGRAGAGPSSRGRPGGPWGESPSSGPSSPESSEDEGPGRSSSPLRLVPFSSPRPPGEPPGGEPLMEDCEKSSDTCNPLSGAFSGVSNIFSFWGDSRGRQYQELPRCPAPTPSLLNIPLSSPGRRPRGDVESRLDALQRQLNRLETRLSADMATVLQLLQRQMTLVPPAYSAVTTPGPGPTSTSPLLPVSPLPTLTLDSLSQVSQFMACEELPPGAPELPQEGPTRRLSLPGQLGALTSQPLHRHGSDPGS

| SMILES | hERG current change (%, negative = inhibition) at 10uM [%] |
| --- | --- |
| COc1ccc(OC)c(NC(=O)C2CCN(S(=O)(=O)c3cccs3)CC2)c1 | -3.74 |
| CC(C)(C)OC(=O)NCc1ccc(CNC(=O)c2nc[nH]c2C(=O)NCc2ccccc2)cc1 | 2.7 |
| COC(=O)CSc1nc2c(c(C3CC=CCC3)c1C#N)CCC2 (stereo not shown) | 8.72 |
| Cc1ccc(CS(=O)(=O)CC(C)(O)c2ccc(Cl)cc2)cc1 (stereo not shown) | -9.67 |
| CCN(CC)C(=O)C12CC3CC(CC(Cl)(C3)C1)C2 | -9.36 |
| CCOC(=O)c1c(NC(C)=O)sc2c(OC)cccc12 | 3.77 |
| C/C(=N\NC(=O)c1ccoc1C)c1cccnc1 | 4.84 |
| Cc1ccc(CC2SC(=Nc3ccccc3)N(c3ccccc3)C2=O)cc1 (stereo not shown) | 3.38 |
| COc1ccccc1NCC(=O)NNC(C)C(=O)Nc1cccc(Cl)c1 (stereo not shown) | -6 |
| Cc1c(OCC(=O)NC(Cc2ccc(Cl)cc2)C(=O)O)ccc2c3c(c(=O)oc12)CCC3 (stereo not shown) | -6.21 |
| CC(C)=C(NC(=O)c1ccccc1)C(=O)N/N=C/c1ccc(O)cc1 | -4.47 |
| NC(=O)C(c1ccc(Br)cc1)c1ccc(C(=O)c2ccccc2)cc1 (stereo not shown) | -7.84 |
| CC(=O)Nc1ccc(NC(=S)NC(=O)c2ccc(-c3ccccc3)cc2)cc1 | 15.7 |
| Cc1ccc(NC(=O)CC2NCCNC2=O)cc1 (stereo not shown) | -6.75 |
| Clc1ccc(-c2nc3cnccn3c2NC2CCCC2)cc1 | -7.75 |
| CC(C)CC(O)C1CCN(C(=O)CCc2nnc(-c3ccccc3)o2)CC1 (stereo not shown) | -9.35 |
| Cc1ccc(OCCn2cc(C#N)c3ccccc32)cc1 | -7.95 |
| Cc1ccc(C2SCC(=O)N2Cc2ccccc2)cc1 (stereo not shown) | -20.9 |
| c1csc(CSc2nc3ccccc3s2)c1 | 7 |
| Cc1ccccc1-c1nc(C#N)c(NCc2ccco2)o1 | -57.2 |
| CCc1ccc2c(CN3CCN(S(=O)(=O)c4cccs4)CC3)cc(=O)oc2c1 | -20.2 |
| COc1ccc(-c2nnn(CC(=O)NCCc3ccc(OC)c(OC)c3)n2)cc1 | 18.8 |
| Cc1ccc(C)c(-n2c3nc(=O)n(C)c(=O)c-3cc3ccccc32)c1 | -2.75 |
| Nc1c(C(=O)NCc2ccccc2)nnn1Cc1ccccc1 | 7.33 |
| Cn1c(=O)c2c(ncn2CC(=O)N/N=C/C=C/c2ccccc2)n(C)c1=O | -23.1 |
